T1: murine CD33-His protein (murine, UniProt Q63994 18-240, limits assumed)
T1 construct: also called murine CD33 protein
T1 sequence (looked up): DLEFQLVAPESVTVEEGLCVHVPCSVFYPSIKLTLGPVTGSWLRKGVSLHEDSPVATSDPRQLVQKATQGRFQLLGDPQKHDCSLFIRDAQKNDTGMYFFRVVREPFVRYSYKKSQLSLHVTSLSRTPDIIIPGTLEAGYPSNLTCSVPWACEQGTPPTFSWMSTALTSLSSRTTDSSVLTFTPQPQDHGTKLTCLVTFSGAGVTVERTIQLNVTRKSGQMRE


How the values were obtained:
murine CD33-His protein [1] = target: T1, murine CD33-His protein; assay: ELISA, antigen coated
murine CD33-His protein [2] = target: T1, murine CD33-His protein; assay: ELISA on coated murine CD33-his
human CD33-His = target: T2, human CD33-His (human, UniProt P20138 18-259); assay: SPR (Biacore), antibody captured on Protein A chip, human CD33-his as analyte
T2 construct: range 18-259; Bought protein; also called human CD33-his protein; hCD33-his; not shown: His tag

| Binder | OD450 at 0.0001 nM (murine CD33-His protein [1]) [OD450] | OD450 at 0.001 nM (murine CD33-His protein [1]) [OD450] | OD450 at 0.01 nM (murine CD33-His protein [1]) [OD450] | OD450 at 0.1 nM (murine CD33-His protein [1]) [OD450] | OD450 at 1 nM (murine CD33-His protein [1]) [OD450] | OD450 at 10 nM (murine CD33-His protein [1]) [OD450] | OD450 at 100 nM (murine CD33-His protein [1]) [OD450] | binding result (murine CD33-His protein [2]) | Kd (human CD33-His) [nM] | koff (human CD33-His) [s⁻¹] | kon (human CD33-His) [M⁻¹ s⁻¹] |
| --- | --- | --- | --- | --- | --- | --- | --- | --- | --- | --- | --- |
| S006-NB146-1 (Fc fusion, also called VHH-Fc) EVQVVESGGGLVQAGGSLTLSCAASGNIENIQVMGWYRQAPGSQRALVAQINLSGLESTNYLDSVKERFTISRDYTKNAVYLRMNRLEPEDTAVYYCNARSYYGQYDYWGQGTQVTVSS[letters of human IgG1 Fc with changes left out] | 0.07 | 0.07 | 0.07 | 0.06 | 0.06 | 0.06 | 0.08 |  |  |  |  |
| S006-NB146-132 (Fc fusion, also called VHH-Fc) QVQLVESGGGLVQAGGSLRLSCAASGGTFVINAAWYHQAPGKQRELVANISYGGSTNYADRVAGRFAISRDNAKNTVYLQMNSLKPEDTGVYYCRLDPGLALNNRPLYYWGQGTQVTVSS[letters of human IgG1 Fc with changes left out] | 0.06 | 0.06 | 0.06 | 0.14 | 0.17 | 0.49 | 0.84 |  |  |  |  |
| S006-NB146-60 (Fc fusion, also called VHH-Fc) EVQLVESGGGLVQAGGSLRLSCVASRSTSSLSLMSWHRQAPGEQRELVASITSGGKANYVDSVKDRFIMTRDDAKNTVYLQMNSLKPEDTAVYYCHAYDRAGTASGFGAAWGQGTQVTVSS[letters of human IgG1 Fc with changes left out] | 0.06 | 0.07 | 0.06 | 0.06 | 0.06 | 0.07 | 0.07 |  |  |  |  |
| S006-NB146-60-H7 (Fc fusion, also called humanized VHH-Fc) EVQLVESGGGLVQPGGSLRLSCAASRSTSSLSLMSWHRQAPGKQRELVASITSGGKANYVDSVKGRFTISRDNAKNSLYLQMNSLKPEDTAVYYCHAYDRAGTASGFGAAWGQGTMVTVSS[letters of human IgG1 Fc with changes left out] |  |  |  |  |  |  |  | no binding (tested: 100 nM) |  |  |  |
| SGN-33 scFv-hIgG1Fc (Fc fusion, Control antibody in scFv-hFc format; variable regions from U.S. Pat. No. 9,453,046) QVQLVQSGAEVKKPGASVKVSCKASGYTFTNYDINWVRQAPGQGLEWIGWIYPGDGSTKYNEKFKAKATLTADTSTSTAYMELRSLRSDDTAVYYCASGYEDAMDYWGQGTTVTVSSGGGGSGGGGSGGGGSDIQMTQSPSSLSASVGDRVTINCKASQDINSYLSWFQQKPGKAPKTLIYRANRLVDGVPSRFSGSGSGQDYTLTISSLQPEDFATYYCLQYDEFPLTFGGGTKVEIK[letters of human IgG1 Fc with changes left out] |  |  |  |  |  |  |  |  | 7.93 | 0.00557 | 702000 |
| S006-NB146-17 (Fc fusion, also called VHH-Fc) QVQLVESGGGLVQSGGSLRLSCAASGSIFTSDDMDYAMGWYRQASGKQREWVATITSDEDTNYGDSVKGRFTISRDSAKNTAFLQMNTLKPEDTAVYYCFANVRSDRSSLYRNYWGQGTQVTVSS[letters of human IgG1 Fc with changes left out] | 0.06 | 0.06 | 0.06 | 0.07 | 0.06 | 0.06 | 0.07 |  |  |  |  |
